{"source": "PubChem BioAssay AID485360", "about": "(National Center for Advancing Translational Sciences (NCATS), 2010)", "note": "In all, about 230,000 compounds went through this assay and about 1,500 (0.65%) were called active. This list was built around the results that the source calls inconclusive (neither active nor inactive); the mix of calls is not that of the screen. Calls follow the shape of the dose curve; as a rule, active = well fitted inhibition curve with a large enough effect; inconclusive = small, poorly fitted or top-dose-only effect; inactive = no such curve, though single readings can be large or run the other way. Potencies beside an inconclusive call are fits to weak or partial responses and may not hold up. % is scaled to controls: 0 for no effect and ±100 for the full control effect; potency is read from the fitted curve at half-maximal effect; tags tell the direction and shape of the fitted curve.", "data": [{"target": "Lethal(3)malignant brain tumor-like protein 1 (Homo sapiens) (UniProt Q9Y468)", "sequence (Q9Y468 whole entry, looked up)": "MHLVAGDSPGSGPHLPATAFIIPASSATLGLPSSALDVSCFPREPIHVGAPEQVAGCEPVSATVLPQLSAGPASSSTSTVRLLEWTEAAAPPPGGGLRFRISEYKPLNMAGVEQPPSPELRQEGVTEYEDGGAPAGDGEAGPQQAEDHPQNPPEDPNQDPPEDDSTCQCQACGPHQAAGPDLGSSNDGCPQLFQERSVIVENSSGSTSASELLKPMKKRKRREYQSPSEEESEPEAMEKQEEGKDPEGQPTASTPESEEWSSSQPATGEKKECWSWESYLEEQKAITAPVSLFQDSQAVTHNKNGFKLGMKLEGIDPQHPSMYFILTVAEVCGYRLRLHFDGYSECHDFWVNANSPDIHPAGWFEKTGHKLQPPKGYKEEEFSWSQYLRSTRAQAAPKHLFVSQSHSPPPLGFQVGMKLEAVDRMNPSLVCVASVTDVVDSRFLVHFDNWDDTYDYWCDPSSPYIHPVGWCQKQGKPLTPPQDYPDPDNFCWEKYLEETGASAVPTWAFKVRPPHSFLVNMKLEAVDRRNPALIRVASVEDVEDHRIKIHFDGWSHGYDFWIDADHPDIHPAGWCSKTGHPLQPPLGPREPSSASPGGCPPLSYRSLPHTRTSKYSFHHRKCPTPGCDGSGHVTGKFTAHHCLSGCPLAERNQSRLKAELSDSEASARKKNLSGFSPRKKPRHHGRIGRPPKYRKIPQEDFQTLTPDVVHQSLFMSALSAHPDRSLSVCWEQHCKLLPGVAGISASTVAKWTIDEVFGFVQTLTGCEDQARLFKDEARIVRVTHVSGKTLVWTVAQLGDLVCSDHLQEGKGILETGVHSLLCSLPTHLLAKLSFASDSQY", "assay": "qHTS Assay for the Inhibitors of L3MBTL1; also: nearly all actives have a fitted effect of over 60% in size", "settings": "AlphaScreen L3MBTL1–H3K9me1 peptide binding; activity, negative = inhibition: at 57.1 µM (top of the series)", "outline": "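L3MBTL1 50 nM + b-AHA-H3(1-15)K9me1 75 nM, 30 min RT; compound added, 30 min RT; streptavidin donor/Ni-chelate acceptor beads 10 ug/mL each final, 30 min RT dark; AlphaScreen read.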", "values": [{"smiles": "Oc1ccccc1Oc1c(F)c(F)nc(N2CCCC2)c1F", "activity, negative = inhibition": "inactive: -24.2%"}, {"smiles": "CCOc1ccc(/C=N/n2cc(-c3ccccc3)[nH]c2=S)cc1", "activity, negative = inhibition": "inactive: -28.8%"}, {"smiles": "CSc1nnc2c(n1)c(C)nn2-c1ccc(C)cc1", "Potency": "inconclusive: 10 µM [inhibitor, partial curve]"}, {"smiles": "CCCCn1c(N)c(N(CC(C)C)C(=O)c2cc(-c3ccco3)nc3ccccc23)c(=O)[nH]c1=O", "Potency": "inconclusive: 22.4 µM [inhibitor, single point]"}, {"smiles": "O=C1c2ccccc2C(=O)C12OC2c1ccc(Cl)cc1", "note": "(stereo not drawn)", "Potency": "inconclusive: 22.4 µM [inhibitor, single point]"}, {"smiles": "Cc1ccc(CN2CCN(/N=C/c3ccc(O)c(O)c3)CC2)cc1", "Potency": "inconclusive: 31.6 µM [inhibitor, single point]"}, {"smiles": "COc1cc(C(=O)OCC(=O)N(C)Cc2ccccc2)cc(OC)c1OC", "Potency": "inconclusive: 5.62 µM [inhibitor, single point]"}, {"smiles": "COc1ccc(/C=C/C(=O)Oc2cccc(/C=N/NC(=O)COc3c(C)cccc3C)c2)cc1", "activity, negative = inhibition": "inactive: -1.89%"}, {"smiles": "CCN1CCN(c2ccc(S(=O)(=O)N3CCOCC3)cc2NC(=O)c2ccc(Cl)cc2Cl)CC1", "activity, negative = inhibition": "inactive: -8.75%"}, {"smiles": "COc1ccccc1Cn1[nH]nnc1=S", "activity, negative = inhibition": "inactive: 0.511%"}, {"smiles": "CNc1snc(C)c1C(=O)OC(C)C(=O)c1ccc(F)cc1", "note": "(stereo not drawn)", "Potency": "inconclusive: 0.708 µM [inhibitor, single point]"}, {"smiles": "CC1CCCCC1NCC(=O)Nc1ccccc1-c1ccccc1", "note": "(stereo not drawn)", "activity, negative = inhibition": "inactive: 4.21%"}, {"smiles": "CC[n+]1c(C)cc2c(sc3ccccc32)c1C", "Potency": "inconclusive: 31.6 µM [inhibitor, single point]"}, {"smiles": "Cc1n[nH]c(=O)n1-c1ccc(OC(F)(F)F)cc1", "Potency": "inconclusive: 0.1 µM [inhibitor, full curve, poor fit]"}, {"smiles": "O=C(O)c1cccc(-c2noc(-c3cccc(Cl)c3)n2)c1", "Potency": "inconclusive: 5.01 µM [inhibitor, single point]"}, {"smiles": "COc1ccccc1OCc1nc(-c2ccc([N+](=O)[O-])cc2)no1", "Potency": "inconclusive: 22.4 µM [inhibitor, single point]"}, {"smiles": "COC(=O)c1nc(N)sc1-c1ccc(Cl)cc1", "Potency": "inconclusive: 8.91 µM [inhibitor, single point]"}, {"smiles": "COCCNc1c2c(nc3ccccc13)CCC2", "activity, negative = inhibition": "inactive: -1.04%"}, {"smiles": "O=C(O)c1cccc(-n2cccc2/C=C/[N+](=O)[O-])c1", "Potency": "active: 2.82 µM"}, {"smiles": "CC1CCCC(NC(=O)Cc2ccc(Br)cc2)C1C", "note": "(stereo not drawn)", "Potency": "inconclusive: 39.8 µM [inhibitor, single point]"}, {"smiles": "O=C(Nc1ncc(Cc2ccccc2)s1)C1CCCO1", "note": "(stereo not drawn)", "Potency": "inconclusive: 39.8 µM [inhibitor, single point]"}, {"smiles": "O=C(O/N=C1\\CCCCC1c1ccc([N+](=O)[O-])cc1[N+](=O)[O-])c1c(F)cccc1F", "note": "(stereo not drawn)", "Potency": "inconclusive: 14.1 µM [inhibitor, partial curve]"}, {"smiles": "COC(=O)NC1CSCC1OC(=O)c1ccc(Br)cc1", "note": "(stereo not drawn)", "Potency": "inconclusive: 3.16 µM [inhibitor, partial curve]"}, {"smiles": "CN1CCN(Cc2cc(COCc3ccccc3)c3cccnc3c2O)CC1", "Potency": "active: 14.1 µM"}, {"smiles": "O=C(N/N=C/C=C/c1ccco1)c1cccs1", "Potency": "active: 31.6 µM"}, {"smiles": "Cc1onc(-c2ccccc2)c1C(=O)NC(=S)NNC(=O)c1ccccc1O", "Potency": "inconclusive: 39.8 µM [inhibitor, single point]"}, {"smiles": "COc1ccccc1/C=C/C=N/NC(=O)c1cc(-c2ccco2)[nH]n1", "Potency": "inconclusive: 12.6 µM [inhibitor, partial curve]"}, {"smiles": "Cc1cc2cc(CNS(=O)(=O)c3ccc4ccccc4c3)ccc2n1C", "activity, negative = inhibition": "inactive: -14.3%"}, {"smiles": "CC(C)c1ccc(COc2ccc(C(=O)N3CCOCC3)cc2)cc1", "Potency": "inconclusive: 39.8 µM [inhibitor, single point]"}, {"smiles": "Cc1nc(C/C(=N\\Nc2ccccc2)c2ccc(O)cc2O)cs1", "Potency": "inconclusive: 31.6 µM [inhibitor, single point]"}, {"smiles": "O=C(CSc1nnc(COc2ccccc2)o1)Nc1nccs1", "Potency": "inconclusive: 35.5 µM [inhibitor, single point]"}, {"smiles": "COC(=O)c1[nH]c2cccc(OC)c2c1NC(=O)CN1CCC(C(N)=O)(N2CCCCC2)CC1", "Potency": "inconclusive: 6.31 µM [inhibitor, single point]"}, {"smiles": "CCc1cc(CNC(=O)CC2C(=O)NCCN2CC2CCCCC2)on1", "note": "(stereo not drawn)", "Potency": "inconclusive: 39.8 µM [inhibitor, single point]"}, {"smiles": "COc1cc([N+](=O)[O-])cc(/C=N\\NC(=O)C2COc3ccccc3O2)c1O", "note": "(stereo not drawn)", "Potency": "inconclusive: 35.5 µM [inhibitor, single point]"}, {"smiles": "Oc1cccc(C=Nc2cccc3ccccc23)c1O", "Potency": "inconclusive: 31.6 µM [inhibitor, single point]"}, {"smiles": "NC(=O)CC(NSc1ccccc1[N+](=O)[O-])C(=O)O", "note": "(stereo not drawn)", "activity, negative = inhibition": "inactive: 7.61%"}, {"smiles": "CS(=O)(=O)c1ccc(C(=O)N2CCc3ccccc3C2)cc1", "activity, negative = inhibition": "inactive: -2.91%"}, {"smiles": "Cc1c(Cl)cnc(NC(=O)COC(=O)c2ccc3ncsc3c2)c1Cl", "Potency": "inconclusive: 22.4 µM [inhibitor, single point]"}, {"smiles": "CC(OC(=O)CNC(=O)c1ccccc1F)C(=O)Nc1nc(-c2ccccc2)cs1", "note": "(stereo not drawn)", "Potency": "inconclusive: 4.47 µM [inhibitor, single point]"}, {"smiles": "Cc1ccc(O)c(/C=N/NC(=O)CN2CCCC2)c1", "Potency": "inconclusive: 35.5 µM [inhibitor, single point]"}, {"smiles": "CC(=O)c1c(C)[nH]c(C(=O)OCn2nnc3ccccc3c2=O)c1C", "Potency": "inconclusive: 0.708 µM [inhibitor, single point]"}, {"smiles": "COc1cccc(C(O)CC(N)=O)c1", "note": "(stereo not drawn)", "Potency": "inconclusive: 5.01 µM [inhibitor, single point]"}, {"smiles": "O=C(NCCc1c[nH]c2ccccc12)/C(=C\\c1cccs1)NC(=O)c1ccccc1", "activity, negative = inhibition": "inactive: -14.3%"}, {"smiles": "Cc1sc2nc(COC(=O)c3ccc(O)cc3)[nH]c(=O)c2c1C", "Potency": "inconclusive: 35.5 µM [inhibitor, single point]"}, {"smiles": "O=C(NCc1ccco1)C1CN(S(=O)(=O)c2ccccc2)CCN1S(=O)(=O)c1ccccc1", "note": "(stereo not drawn)", "activity, negative = inhibition": "inactive: -2.26%"}, {"smiles": "C/C(N)=C(/C#N)C(=O)CSc1cc(Cl)ccc1Cl", "activity, negative = inhibition": "inactive: 0.52%"}, {"smiles": "CCc1cc(C(=O)NNC(=S)NCC2CCCO2)cs1", "note": "(stereo not drawn)", "activity, negative = inhibition": "inactive: -8.21%"}, {"smiles": "CC/C(=N\\NC(=S)Nc1cccc(C)c1)c1ccccc1", "Potency": "inconclusive: 17.8 µM [inhibitor, partial curve]"}, {"smiles": "Cc1ccc(NC(=O)C2CCN(c3ncnc4sc(C)c(C)c34)CC2)cc1S(=O)(=O)N(C)C", "activity, negative = inhibition": "inactive: -2.09%"}, {"smiles": "O=C(N/N=C/c1ccc(Sc2ccccn2)o1)c1cc2ccccc2cc1O", "Potency": "inconclusive: 25.1 µM [inhibitor, single point]"}, {"smiles": "Cc1onc(-c2c(Cl)cccc2Cl)c1C(N)=S", "Potency": "inconclusive: 1.78 µM [inhibitor, full curve, poor fit]"}, {"smiles": "c1ccc(OCCn2cnc3ccccc32)cc1", "Potency": "inconclusive: 6.31 µM [inhibitor, single point]"}, {"smiles": "COc1cc(OC)cc(C(=O)NCCS(=O)(=O)N2CCN(Cc3ccccc3)CC2)c1", "Potency": "inconclusive: 39.8 µM [inhibitor, single point]"}, {"smiles": "O=C(O)C1CCCCC1C(=O)Nc1cccc2ccccc12", "note": "(stereo not drawn)", "activity, negative = inhibition": "inactive: -1.47%"}, {"smiles": "CC(=O)N1CCN(CC(=O)Nc2ccccc2Sc2ccc(Cl)cc2)CC1", "activity, negative = inhibition": "inactive: 5.19%"}, {"smiles": "COc1ccc(N(CC(=O)NC2CCCCC2)C(=O)CNC(=O)c2ccco2)cc1OC", "Potency": "inconclusive: 7.08 µM [inhibitor, single point]"}, {"smiles": "CCOc1ccccc1CNc1ccc(O)cc1", "Potency": "inconclusive: 15.8 µM [inhibitor, partial curve]"}, {"smiles": "C[N+](C)(C)CCCN1C(=O)CCCC1=O", "activity, negative = inhibition": "inactive: 0.104%"}, {"smiles": "CCc1ccc(-n2c(=O)c3c(C)c(C(=O)N(C)C)sc3n(CC(=O)NCC3CCCO3)c2=O)cc1", "note": "(stereo not drawn)", "Potency": "inconclusive: 0.794 µM [inhibitor, single point]"}, {"smiles": "Cc1ccc(CNC(=O)CCCC(=O)Nc2cc(C)on2)cc1", "activity, negative = inhibition": "inactive: 12.1%"}, {"smiles": "CCOC(=O)c1cc(-c2ccccc2C)nn1CC1CC(c2cccnc2)=NO1", "note": "(stereo not drawn)", "activity, negative = inhibition": "inactive: 2.37%"}, {"smiles": "CN1CCC(N(C)C(=O)CCc2nc3ccccc3n2-c2ccccc2)CC1", "Potency": "inconclusive: 39.8 µM [inhibitor, single point]"}, {"smiles": "O=C(Oc1coc(CSc2nnc(NC(=O)c3cccs3)s2)cc1=O)c1ccccc1", "Potency": "inconclusive: 39.8 µM [inhibitor, single point]"}, {"smiles": "COc1ccc(N=N/C(=C\\O)C(=O)c2cccs2)cc1", "Potency": "inconclusive: 3.16 µM [inhibitor, full curve, poor fit]"}, {"smiles": "CN1CCN(C(=O)c2ccccc2Nc2ccc(SC(F)F)cc2)CC1", "activity, negative = inhibition": "inactive: -10.1%"}, {"smiles": "CC[C@]12c3[nH]c4cc(-c5ccco5)ccc4c3CCN1C(=O)[C@@H](CC(=O)NCCC1=CCCCC1)C[C@@H]2C(=O)N1CCN(C(=O)c2ccco2)CC1", "Potency": "active: 20 µM"}, {"smiles": "O=C(CSc1nnc(-c2ccccc2)n1-c1ccccc1)c1ccc[nH]1", "Potency": "inconclusive: 0.794 µM [inhibitor, single point]"}, {"smiles": "Cc1c(N=Nc2ccc(O)cc2)c(=O)n(-c2ccccc2)n1C", "Potency": "inconclusive: 0.112 µM [inhibitor, full curve, poor fit]"}, {"smiles": "Cc1ccc(NC(=O)CCC(=O)N/N=C/c2cc([N+](=O)[O-])ccc2O)cc1", "activity, negative = inhibition": "inactive: 1.67%"}, {"smiles": "Cc1cc(/C=N/NC(=O)C(O)(c2ccccc2)c2ccccc2)c(C)n1-c1cccc(C(=O)O)c1", "Potency": "inconclusive: 39.8 µM [inhibitor, single point]"}, {"smiles": "COc1ccccc1Nc1nc(N)nc(CN2CCc3ccccc3C2)n1", "Potency": "inconclusive: 14.1 µM [inhibitor, partial curve]"}, {"smiles": "O=c1nc2s/c(=C\\c3ccc(-c4ccccc4[N+](=O)[O-])o3)c(=O)n2nc1-c1ccccc1", "Potency": "active: 2.24 µM"}, {"smiles": "C(=N\\Nc1nc2ccccc2[nH]1)/c1c[nH]c2ccccc12", "activity, negative = inhibition": "inactive: -15.3%"}]}]}
